Reference: ChEMBL document CHEMBL1201862, “PubChem BioAssay data set” (2004)

These molecules were tested on NCI-H322M (assay: DTP human tumour cell line panel, 48 h).
For COc1ccc(Br)c(CCCCC(=O)O)c1, the GI50 was inactive: > 100 µM.
With CCOC(=O)CCc1cn2cc(Br)nc(OC)c2n1 the GI50 was inactive: > 100 µM.
With O=c1c2ccccc2nc(-c2ccccc2)n1O the GI50 was inactive: > 100 µM.
In the case of O=C(CC(=O)C(F)(F)F)c1csc2ccccc12, the GI50 is reported as inactive: 40.2 µM.
With Cc1ccc(C(=N)Nc2ccccc2)cc1 the GI50 was inactive: > 100 µM.
In the case of O=[N+]([O-])c1cc2c([N+](=O)[O-])cccc2o1, the GI50 is reported as inactive: 20 µM.
In the case of N#Cc1c(C#N)c(-c2ccccc2)n(-c2ccccc2)c1N, the GI50 is reported as inactive: > 100 µM.
In the case of O=C(/C=C/c1ccc2c(c1)OCO2)c1ccccc(=O)c1O, the GI50 is reported as inactive: 15 µM.
In the case of Cc1nc(N)nn1C1OCC(O)C(O)C1O (configuration not stated), the GI50 is reported as inactive: > 100 µM.
Cc1ccc(OCCn2cc(Nc3ccccc3)c(=O)[nH]c2=O)cc1 was tested, and the GI50 was inactive: > 100 µM.
With COC(=O)C1=NN2c3ccccc3CN([C@@H](C)c3ccccc3)C(=O)[C@@H]2C1 the GI50 was inactive: > 100 µM.
Oc1ccc(-c2nc3cc(C(F)(F)F)ccc3s2)cc1 was tested, and the GI50 was inactive: 15.3 µM.
In the case of CCOC(=O)C(CC(C)C)NC(=O)CSc1nnc(COc2ccc(Cl)cc2)n1-c1ccccc1 (configuration not stated), the GI50 is reported as inactive: 18.6 µM.
CN(C)/N=C(/c1nc2ccc(Cl)cc2nc1O)C(O)c1ccc(C(O)/C(=N\N(C)C)c2nc3ccc(Cl)cc3nc2O)cc1 (configuration not stated) was tested, and the GI50 was inactive: > 100 µM.
With C[C@H]1C(=O)CC[C@]2(C)CCC(C(C)(C)O)CC12O (some centres not stated) the GI50 was inactive: > 100 µM.
COc1cc2cnc3c4cc(OCc5ccccc5)ccc4ccc3c2cc1OC was tested, and the GI50 was inactive: 40.4 µM.
For O=C(O)C1=NN(c2ccc(S(=O)(=O)O)cc2)C2(C1)C(Cl)C(=O)N2c1nc2ccccc2s1 (configuration not stated), the GI50 was inactive: 20.2 µM.
COc1ccc([I+]c2ccc(OC)cc2)cc1 was tested, and the GI50 was inactive: > 100 µM.
With CC[C@H]1CN2CCc3cc(OC)c(OC)cc3[C@@H]2C[C@@H]1C[C@H]1NCCc2cc(O)c(OC)cc21 the GI50 was active: 0.538 µM.
For COC(O)C12OC3CO[Si](C(C)C)(C(C)C)O[Si](C(C)C)(C(C)C)OC3C1Oc1nc(=O)ccn12 (configuration not stated), the GI50 was inactive: 16.4 µM.
For CNCCCn1c2ccccc2c2c3c(c(-c4ccsc4)cc21)C(=O)NC3=O, the GI50 was active: 0.986 µM.
With CCOP(=O)(OCC)/C(C#N)=C/c1cccn1CC(C)C the GI50 was inactive: > 100 µM.
With CC(C)N(C(=O)C12C3C4C5(C#N)C3C1(C#N)C5C42C#N)C(C)C (configuration not stated) the GI50 was inactive: > 100 µM.
In the case of COc1cc2c(c(OC)c1OC)C(=O)[C@H]1OC(=O)N[C@@H]21, the GI50 is reported as inactive: > 100 µM.
In the case of COc1ccc(C2=C(N)c3ncccc3C2=O)cc1, the GI50 is reported as inactive: > 100 µM.
In the case of COc1ccc(N[C@H]([C@@H](c2ccccc2)[S+]([O-])c2ccc(C)cc2)C(F)(F)F)cc1 (some centres not stated), the GI50 is reported as inactive: > 100 µM.
In the case of CCCc1cc(OC(=O)c2c(O)cc(OC)cc2CCC)cc(O)c1C(=O)O, the GI50 is reported as inactive: 21.3 µM.
With COc1cc(Nc2cnc3ccc(N)cc3n2)cc(OC)c1OC the GI50 was inactive: > 62.5 µM.
For Cc1ncc([N+](=O)[O-])n1CCNC(=O)CCCCCn1ccnc1[N+](=O)[O-], the GI50 was inactive: > 100 µM.
CCOC(=O)N1CCC(N[C@@H]2c3cc4c(cc3[C@@H](c3cc(OC)c(O)c(OC)c3)[C@H]3C(=O)OC[C@@H]32)OCO4)CC1 was tested, and the GI50 was inactive: 12.6 µM.
In the case of C/C(=N\NC(=O)/C(C#N)=C\c1ccc(N(CCC#N)CCC#N)cc1)c1ccccc1, the GI50 is reported as inactive: > 10 µM.
C=C1C(=O)OC2C3OC(C)(CCC(O)C3COC(C)=O)CC(OC(=O)/C(=C/C)COC(C)=O)C12 (configuration not stated) was tested, and the GI50 was inactive: 10.8 µM.
With COc1ccc(Cc2c(-c3ccc(C)cc3)n[nH]c(=O)c2C2C(=O)N(c3ccccc3)N=C2c2ccccc2)cc1 (configuration not stated) the GI50 was inactive: 22.9 µM.
In the case of COc1ccc(C2SCC(=O)N2NC(=O)c2ccncc2)cc1F (configuration not stated), the GI50 is reported as inactive: > 100 µM.
In the case of c1ccc(N/N=C2\CC(c3ccccc3)Oc3ccccc32)cc1 (configuration not stated), the GI50 is reported as inactive: 44.6 µM.
In the case of CCOP(=O)(OCC)/C(C#N)=C/c1cnc(C)[nH]1, the GI50 is reported as inactive: > 100 µM.
With Oc1ccc2ccccc2c1/C=C/c1ccc2c(Br)cc(Br)c(O)c2n1 the GI50 was inactive: 7.96 µM.

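How tested: cells in 96-well plates exposed to compound for 48 hours at five concentrations. GI50 is the concentration that inhibits growth by half.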 The source made the active and inactive calls. Cut-off read from the data, not from the text of the source: active = GI50 up to about 1.1 µM and inactive = higher.
